# According to paper PMC4336329 (PLoS ONE, 2015):
# Out of some 310,000 compounds screened, about 14,000 (4.5%) showed an effect of 50% or more. The effect is printed as a negative number. This is one part of the list.
# Biological target: human ether-à-go-go-related gene (hERG) potassium channel (human, UniProt Q12809)
# Assay: primary screen, population patch clamp on CHO cells stably expressing hERG
# 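Note: peak tail current of the secondary pulse compared with the same well before compound.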
# Sequence of human ether-à-go-go-related gene (hERG) potassium channel (Q12809 whole entry, looked up): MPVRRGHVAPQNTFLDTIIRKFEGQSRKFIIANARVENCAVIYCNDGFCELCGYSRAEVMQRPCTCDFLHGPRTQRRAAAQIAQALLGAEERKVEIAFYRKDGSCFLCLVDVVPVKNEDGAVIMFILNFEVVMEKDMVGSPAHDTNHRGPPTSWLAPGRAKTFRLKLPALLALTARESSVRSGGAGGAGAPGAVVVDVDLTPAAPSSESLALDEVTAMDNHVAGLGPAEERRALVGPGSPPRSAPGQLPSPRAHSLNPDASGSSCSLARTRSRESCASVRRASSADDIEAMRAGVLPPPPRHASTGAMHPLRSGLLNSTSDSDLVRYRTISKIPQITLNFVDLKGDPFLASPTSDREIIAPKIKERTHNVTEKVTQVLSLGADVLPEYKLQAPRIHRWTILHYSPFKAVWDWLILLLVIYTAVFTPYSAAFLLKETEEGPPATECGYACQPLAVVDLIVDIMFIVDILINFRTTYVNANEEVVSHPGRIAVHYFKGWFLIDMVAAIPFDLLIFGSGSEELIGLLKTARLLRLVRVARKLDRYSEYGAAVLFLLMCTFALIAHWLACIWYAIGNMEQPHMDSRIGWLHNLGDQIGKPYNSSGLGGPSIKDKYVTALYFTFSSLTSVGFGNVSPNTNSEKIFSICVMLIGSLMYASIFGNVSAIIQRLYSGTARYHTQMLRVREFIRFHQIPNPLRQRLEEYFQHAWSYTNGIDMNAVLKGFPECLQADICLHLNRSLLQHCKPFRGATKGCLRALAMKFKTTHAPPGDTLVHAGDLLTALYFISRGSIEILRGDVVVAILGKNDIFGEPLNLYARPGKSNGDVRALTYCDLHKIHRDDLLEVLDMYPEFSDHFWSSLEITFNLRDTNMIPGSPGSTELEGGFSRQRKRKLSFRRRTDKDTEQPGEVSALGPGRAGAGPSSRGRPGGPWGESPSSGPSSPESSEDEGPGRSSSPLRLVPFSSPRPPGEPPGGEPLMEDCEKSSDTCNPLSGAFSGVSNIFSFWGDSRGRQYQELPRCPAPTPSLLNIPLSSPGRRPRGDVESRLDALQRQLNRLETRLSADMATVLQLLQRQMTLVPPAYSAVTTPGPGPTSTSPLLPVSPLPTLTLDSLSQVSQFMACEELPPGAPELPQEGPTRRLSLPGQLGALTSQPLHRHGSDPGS
row,SMILES,"hERG current change (%, negative = inhibition) at 10uM [%]"
1,COCCn1c(SCC(=O)Nc2ccc(OC)cc2)nc2c(oc3ccccc32)c1=O,-3.87
2,CC(C(=O)Nc1ccccc1-c1ccccc1)N1CCN(S(=O)(=O)c2ccccc2)CC1 (stereo not shown),-14.3
3,Cc1ccc(C)c(NC(=O)CSc2nnc(CCNC(=O)OC(C)(C)C)o2)c1,-12.3
4,O=C(CSc1ncn[nH]1)N1CCCCC1,21
5,CCC(C(=O)NC1CCCCC1)N(Cc1cccs1)C(=O)c1snc(C(N)=O)c1N (stereo not shown),-16.8
6,CCCn1c(C(=O)OC)cc2c1ccn2-c1ccc(F)cc1,13.4
7,Cc1ccccc1-c1nnc(SCC(=O)N(CC(C)C)c2c(N)n(CC(C)C)c(=O)[nH]c2=O)n1C,30.2
8,CC(C)c1ccc(OCC(O)CN2CCN(c3ccccc3)CC2)cc1.Cl (stereo not shown),-47.3
9,COc1ccc(NC(=O)CN2CCN(c3ccccc3C)CC2)cc1,-41.2
10,O=C(Oc1cccc(C(=O)N2CCOCC2)c1)c1ccc(Br)cc1,-8.03
11,COc1ccc(OC)c(NC(=O)COC(=O)CSc2ccc(Cl)cc2)c1,-3.36
12,COc1ccccc1CN(Cc1cc2c(C)ccc(C)c2[nH]c1=O)Cc1nnnn1Cc1ccco1,-1.04
13,N#CC1=C(N)Oc2n[nH]c(-c3ccccc3)c2C12C(=O)Nc1ccccc12 (stereo not shown),17.4
14,COc1ccc2cc(C(=O)C3CCCN(C(=O)c4sc(C)nc4C)C3)ccc2c1 (stereo not shown),-22.8
15,N#Cc1ccccc1NC(=O)COC(=O)CSc1nc2ccccc2o1,9.73
16,COc1ccc(-c2nnc(SCC(=O)O)n2Cc2ccccc2)cc1,23.9
17,O=C(O)c1ccc(C2NCC(c3ccccc3Cl)c3c2[nH]c2ccccc32)cc1 (stereo not shown),28.6
18,CCOc1ccc(N(CC)S(=O)(=O)c2ccc3c(c2)oc(=O)n3C)cc1,-5.43
19,Cc1nc(-c2cccc(S(=O)(=O)N3CCCC(C)C3)c2)cs1 (stereo not shown),-9.76
20,CC(C)NC(=O)COC(=O)C1CSC2(c3ccc(Br)cc3)CCC(=O)N12 (stereo not shown),-28.9
21,Br.CCCCN1C2=NCCCN2c2ccccc21,-54.5
22,C/C(=C\C(=O)Nc1cc(C)on1)c1ccccc1,0.998

row,SMILES,"hERG current change (%, negative = inhibition) at 10uM [%]"
1,O=C(CNc1cccc(S(=O)(=O)N2CCCC2)c1)Nc1cccc(Br)c1,-18.5
2,CCOC(=O)N1CCN(C(=O)c2ccc3c(SCC(=O)O)c4c(nc3c2)CCC4)CC1,11.3
3,COc1cccc(CN(C(=O)/C=C/c2ccc(Cl)cc2)C2CCS(=O)(=O)C2)c1 (stereo not shown),-25.9
4,Cn1c(=O)c2c(nc(CN3CCC(C(N)=O)CC3)n2Cc2ccccc2F)n(C)c1=O,-5.91
5,COc1ccc(C(C(=O)NC(C)(C)C)N(Cc2cccs2)C(=O)CCC(=O)Nc2cc(C)on2)cc1 (stereo not shown),-9.02
6,CN(CCCN1CCOCC1)C(=O)c1cc(COc2ccc(F)cc2F)on1,-20.8
7,COc1ccc(-c2c(C)n([O-])c(C)c(C)[n+]2=O)cc1OC,17.6
8,Cc1cc(C(=O)N/N=C/c2cc(Cl)cc([N+](=O)[O-])c2O)c2ccccc2n1,11.4
9,O=C(c1ccc(Cl)cc1)[C@@H]1[C@@H]2C(=O)N(c3cccc4ccccc34)C(=O)[C@@H]2C2c3ccccc3C=NN21 (stereo partly shown),7.79
10,CC(C)c1ccc(OCC(=O)NCc2ccccc2)cc1,-2.13
11,O=S(=O)(c1ccccc1)n1nc(-c2ccccc2)nc1NCc1ccco1,2.1
12,COc1ccc(C(=O)Nc2cc3c(oc2=O)CCCC3=O)cc1,6.51
13,O=C(CN1CCN(c2ccc(O)cc2)CC1)Nc1ccccc1C(=O)NCCc1ccccc1,-9.24
14,O=C(CCl)NCC1CCCO1 (stereo not shown),9.13
15,Cc1cc(C)n2nc(C)c(-c3ccc(Cl)cc3)c2n1,27.1
16,Cc1ccc2oc(C(=O)N(Cc3ccncc3)CC3CCCO3)c(C)c2c1 (stereo not shown),-34.9
17,O=C(CCc1ccccc1)NCCSCc1c(F)cccc1Cl,-20.1
18,Cc1ccccc1C(=O)NCC(=O)c1ccccc1,3.95
19,CCN(CC)c1ccc(S(=O)(=O)N2CCOCC2)cc1NC(=O)CSC(=S)N1CCCC1,-32.2
20,CCN(CC)S(=O)(=O)c1cc(NC(=O)c2ccc3c(c2)NC(=O)C(C)S3)ccc1C (stereo not shown),7.08
21,O=C(N/N=C/c1cn(-c2ccccc2)nc1-c1cc2ccccc2o1)c1c[nH]c2ccccc12,13.2
